Laboratory results as given in patent US20120219565A1 (Merck Sharp & Dohme, published 2012).
Substitutions are numbered along the chain they refer to.

B1: Humanized anti hu TSLP mAb 23B12 (comprising the heavy chain of SEQ ID NO:14 and the light chain of SEQ ID NO:16 of WO2008/076321) (antibody, part only; not given: light chain from another filing, part only)
heavy: QVQLVQSGAEVKKPGASVKVSCKASGYIFTDYAMHWVRQAPGQGLEWMGTFIPLLDTSDYNQNFKGRVTMTTDTSTSTAYMELRSLRSDDTAVYYCARMGVTHSYVMDAWGQGTLVTVSS[human IgG1 constant region left out here]
B2: Humanized anti hu TSLP mAb 23B12 (comprising the heavy chain of SEQ ID NO:14 with a mutation at position 72 from T to A, and the light chain of SEQ ID NO:16 of … (antibody, part only; not given: light chain from another filing, part only)
heavy: B1 heavy with T72A

Experiments:
[1] = molecular target: Recombinant human TSLP (expressed in HEK293 cells) (human) (UniProt Q969D9); assay: cell-based or functional assay
[2] = molecular target: Recombinant human TSLP (expressed in HEK293 cells) (human) (UniProt Q969D9); assay: KinExA 3000, solution equilibrium, 25 °C, particles coated with biotinylated human TSLP
[3] = molecular target: Recombinant human TSLP (expressed in HEK293 cells) (human) (UniProt Q969D9); assay: SPR, BIAcore T100, TSLP immobilised on CM5, antibody injected, bivalent analyte model, room temperature

Binder | EC 50, inhibition of TSLP-induced proliferation of Ba/F3-TSLPR-IL7Ra cells [1] | Kd [2] | Kd [3]
B1 | 0.092 µg/mL | 0.0077 nM | 0.15 nM
B2 | 0.054 µg/mL | 0.0016 nM | 0.128 nM
